Test results from PubChem BioAssay AID504832 (National Center for Advancing Translational Sciences (NCATS), 2011).
About 18,000 (5.8%) of roughly 310,000 compounds were called active. The inconclusive results got no clear call from the source; some entries with a clear call stand among them for comparison. The call rests on the fitted dose curve; in most records, active means well fitted inhibition curve with a large enough effect; inconclusive means small, poorly fitted or top-dose-only effect, or another doubt; inactive means no such curve, though single readings can be large or run the other way. Potencies of inconclusive entries are left out as doubtful fits.

Assay: Primary qHTS for delayed death inhibitors of the malarial parasite plastid, 48 hour incubation
Details: P. falciparum luciferase growth in erythrocytes; series mostly up to 28.7 µM; activity change, negative = inhibition: at the top concentration
In short: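 In quantitative HTS format, infected erythrocytes bearing luciferase-reporter parasites were treated for a single generation at 37 C. Luminescence after adding detection reagent served as the growth measure.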
On the % scale 0 is the no-effect control and ±100 the full control effect; potency means the concentration at half of the fitted maximal effect; tags describe the fitted curve by direction and shape.

SMILES	activity change, negative = inhibition	Potency
C=CCNS(=O)(=O)c1ccc(OC)c(C)c1	inactive: 0.484%	–
NS(=O)(=O)c1ccc(NC(=S)Nc2ccc(Br)c(Cl)c2)cc1	–	inconclusive [inhibitor, partial curve]
COc1ccc(CNC(=O)COc2ccc(S(=O)(=O)N3CCCCC3)cc2)cc1	–	inconclusive [inhibitor, single point]
CC(C)[C@H](NC(=O)c1c(F)cccc1F)C(=O)N1CCN(c2ccc(F)cc2)CC1	–	inconclusive [inhibitor, partial curve]
Cc1ccc(O)c(Nc2ncnc3ccccc23)c1	–	inconclusive [inhibitor, single point]
O=C(CN1C(=O)NC2(CCCCCCC2)C1=O)NCc1ccccc1Cl	inactive: -15.6%	–
O=C(N/N=C\c1c(O)ccc2ccccc12)c1cncc(Br)c1	–	active: 2.94 µM
CCOC(=O)c1c(NC(C)=O)sc2c(O)c(CN3CCN(CC)CC3)ccc12	–	active: 10.4 µM
CC(=O)Nc1ccc([N+](=O)[O-])c(CS(=O)(=O)c2ccc(C)cc2)c1[N+](=O)[O-]	–	inconclusive [inhibitor, partial curve]
O=C(OCC1OC(OC(=O)c2cc(O)c(O)c(OC(=O)c3cc(O)c(O)c(O)c3)c2)[C@@H](OC(=O)c2cc(O)c(O)c(OC(=O)c3cc(O)c(O)c(O)c3)c2)C(OC(=O)c2cc(O)c(O)c(OC(=O)c3cc(O)c(O)c(O)c3)c2)C1OC(=O)c1cc(O)c(O)c(OC(=O)c2cc(O)c(O)c(O)c2)c1)c1cc(O)c(O)c(OC(=O)c2cc(O)c(O)c(O)c2)c1 (some centres undefined)	–	active: 3.38 µM
C=C1NC(=O)c2cc(CN(C)c3ccc(C(=O)N[C@@H](CCC(=O)O)C(=O)O)s3)ccc2N1	–	inconclusive [inhibitor, single point]
COc1ccc(N2CCN(C(=O)CCCn3c(=O)c4cccn4c4cccnc43)CC2)cc1	–	active: 11.7 µM
CCCNC(=S)N1CCN(c2nc(C)nc3sc4c(c23)CCCC4)CC1	–	inconclusive [inhibitor, single point]
Cc1cc(C)cc(NC(=O)COC(=O)c2n[nH]c3ccccc23)c1	inactive: 54.8%	–
COc1ccc(N(CC(=O)Nc2ccccc2C(=O)NCC(C)C)S(C)(=O)=O)cc1	inactive: -12.7%	–
C/C(=N\Nc1nc2ccccc2[nH]1)c1ccc([N+](=O)[O-])cc1	–	active: 0.185 µM
COc1ccc(S(=O)(=O)N2CCOC2CNC(=O)C(=O)NCCc2ccccc2)cc1 (centres undefined)	–	inconclusive [inhibitor, partial curve, poor fit]
CN1CCN(CCCN2c3ccccc3Sc3ccc(Cl)cc32)CC1	–	active: 9.28 µM
C/C(=C\c1ccccc1F)C1Nc2cccc3cccc(c23)N1	inactive: -2.26%	–
S=C(Nc1ccc(Cl)cc1Cl)NC1CCCCC1	inactive: 33.5%	–
Cc1ccc(O)c(C(CC(=O)NC2CCCCC2)c2ccccc2)c1 (centres undefined)	–	inconclusive [inhibitor, single point]
CC1(C)N(O)C2CCCCC2N1O (centres undefined)	–	active: 0.037 µM

SMILES	activity change, negative = inhibition	Potency
CCOC(=O)c1c(N)sc(C(=O)N2CCOCC2)c1C	–	inconclusive [inhibitor, single point]
CCOc1ccc(C2C(C#N)=C(N)N3C(=C2C#N)Sc2ccccc23)cc1 (centres undefined)	–	inconclusive [inhibitor, single point]
Cc1ccc(C(=O)N2CCN(S(=O)(=O)N3CCCCC3)CC2)cc1	inactive: 14.4%	–
Cc1ccc([N+](=O)[O-])cc1NC(=O)c1ccc(C(C)(C)C)cc1	–	inconclusive [inhibitor, single point]
CCOc1ccc(OCC)c(NC(=O)CN2CCN(C(=O)c3ccco3)CC2)c1	–	inconclusive [inhibitor, partial curve, poor fit]
CCOc1ccc(Nc2n[nH]c(=S)s2)cc1	–	inconclusive [inhibitor, single point]
CN1/C(=C\C(=O)c2ccco2)C(C)(C)c2ccccc21	–	active: 1.65 µM
Cc1nnc(NC(=O)C2CCN(C(=O)c3ccco3)CC2)s1	inactive: -6.53%	–
Cc1cc(=O)[nH]c(N/N=C/c2cccc(Br)c2)n1	–	inconclusive [inhibitor, single point]
CCOc1cc(NS(=O)(=O)c2ccc(NC(C)=O)cc2)c(OCC)cc1NC(=O)c1cccs1	inactive: -4.04%	–
c1ccc(CNn2nnnc2-c2ccccc2)cc1	inactive: 2.14%	–
CCN(CC)S(=O)(=O)c1ccccc1/C=N\O	inactive: 69.7%	–
O=C(NNC(=S)NC(=O)C12CC3CC(CC(C3)C1)C2)c1ccncc1	–	active: 3.29 µM
COc1ccc(NC(=O)N2CCN(S(=O)(=O)c3ccc(F)cc3)CC2)c(OC)c1	–	inconclusive [inhibitor, partial curve, poor fit]
CC(C)N(CCO)C(=O)C(c1ccccc1)c1ccccc1	–	inconclusive [inhibitor, single point]
O=C(NCc1cccc(Cl)c1)c1cccc(S(=O)(=O)N2CCCCC2)c1	–	inconclusive [inhibitor, single point]
Cc1ccc(C)c(N2CCN(c3ncccc3[N+](=O)[O-])CC2)c1	–	inconclusive [inhibitor, single point]
Cc1nc2nc[nH]n2c(=O)c1C/C=C/c1ccccc1	–	inconclusive [inhibitor, single point]
O=C(NC(=S)Nc1cc(Cl)ccc1N1CCOCC1)c1ccccc1[N+](=O)[O-]	–	inconclusive [inhibitor, partial curve, poor fit]
C/C(CC(=O)Nc1ccc2ccccc2c1)=N\NC(=O)c1cnccn1	–	inconclusive [inhibitor, single point]
COc1cccc(N(CC(=O)NC2CCCCCC2)S(=O)(=O)c2ccccc2)c1	–	inconclusive [inhibitor, single point]
CC(C)CC(=O)OC1C(N2CCOCC2)c2c(ccc(/C=C/C(=O)N3CCOCC3)c2O)OC1(C)C (centres undefined)	–	inconclusive [inhibitor, single point]
